# ChEMBL document CHEMBL4888484, “Replenishing the malaria drug discovery pipeline: Screening and hit evaluation of the MMV Hit Generation Library 1 (HGL1) against asexual blood stage Plasmodium falciparum ,using a nano luciferase reporter read-out” (2022)
# The campaign covered roughly 150,000 compounds. About 540 (0.36%) showed an effect of 50% or more. This is one part of the list.
# System: Plasmodium falciparum
# Assay: Primary screen in NF54 nanoGlo assay, in single point, at 2uM, 72h; a lower Z score goes with more inhibition
# Format: functional, Erythrocyte
# Settings: timepoint 72 hour
SMILES,% Inhibition [%],Z score
C[C@H]1[C@@H](NC(=O)COCc2cccc(Cl)c2)CCS1(=O)=O,-7,0.96
O=C(c1ccccc1)N1CCN(CCn2cnnc2)CC1,-3,0.62
c1ccc2cc(Nc3ccc4ccccc4c3)ccc2c1,-8,1.27
C=C(C)COCCNC(=O)Nc1cccc(N(C)CC)c1,-3,0.35
c1ccc(CCCOC2CN(c3nc4ccccc4o3)C2)cc1,-15,1.83
COc1ccc(NC(=O)Nc2ccc(N3CCN(Cc4ccccc4)CC3)c(C(=O)NC3CCCCC3)c2)c(OC)c1,-6,0.69
CC(C)[C@H]1CN(C(=O)c2n[nH]c3c2CN(C)CC3)C[C@@H]1NC(=O)N(C)C,-5,0.7
Cc1cccn2cc(C(=O)N[C@H]3CCN(Cc4cscn4)C[C@@H]3O)nc12,-18,1.68
C1CC2(C1)CC(NC1CCOC(C3CC3)C1)C2 (centres undefined),6,-0.65
Cc1onc(C(=O)N(CCN(C)C)C2CCOCC2)c1COc1ccccc1,-1,0.21
O=C(c1c[nH]cn1)N1CC[C@@H](c2ccccc2Cl)S(=O)(=O)CC1,-13,2.24
CC1(C)CO[C@@H](CS(=O)(=O)NCc2nccn2C(F)F)C1,-14,2.1
CCOC1CC(CC(=O)NCCc2c[nH]c3ncccc23)C1 (centres undefined),-1,0.22
O=C(Cc1cccs1)NCCOc1cc(N2CCCC2)ncn1,13,-1.76
CC(O)(CN1CCCC(Cn2cncn2)C1)C(F)(F)F (centres undefined),-20,2.81
C=CCC(CC)NC(=O)Nc1ccn(C(C)COC)n1 (centres undefined),-5,0.58
O=c1cnc2cc(S(=O)(=O)N3CCCCCCC3)ccc2[nH]1,-1,0.14
CC(C)c1ccc(S(=O)(=O)[C@@H](CN)c2ccc(N(C)C)cc2)cc1,-4,0.46
C=CCCC(=O)N1CC[C@H](OCC2CC2)C1,-17,2.7
Cn1cccc1C(=O)NC1CCN(c2cc3c(nn2)CCCC3)CC1,-17,2.88
Cc1cc(=O)c(C(=O)N(Cc2ccsc2)C2CCCC2)c(C)[nH]1,-4,0.66
COC(=O)CCN(Cc1nc2c(F)cccc2[nH]1)C[C@H]1CCCO1,-4,0.66

SMILES,% Inhibition [%],Z score
Brc1ccc([C@@H]2CCCN2c2cncc3nncn23)cc1,-9,1.22
Cc1cc2oc(-c3cc4ccccc4o3)c(CC(=O)O)c2c(=O)[nH]1,5,-0.77
CCn1nccc1[C@H]1OCC[C@@H]1C(=O)N1CCN(CC(F)F)CC1,-12,2.02
COc1ccc(N(C)C(=O)c2c(C)coc2C)nc1,-10,1.29
CN1c2cccnc2CN(Cc2ccccc2)CC[C@H]1CO,32,-3.63
Cc1nc(NCC2(CO)CCC2)ccc1Cl,-10,1.11
Cc1cc(C)c(C)c(OCc2nc(CN(C(=O)c3ccccc3)C3CC3)cs2)c1,-15,1.63
O=C(C[n+]1cccc2ccccc21)c1ccc(F)cc1,-31,3.67
O=C(NCc1cccc(C(F)(F)F)c1)c1ccc(CN2CCn3cccc3[C@H]2c2ccc3c(c2)OCCO3)o1,-7,0.67
Cc1nc[nH]c1-c1nccn1Cc1nnnn1-c1ccccc1,2,-0.3
CC(=O)Nc1cnn(Cc2nnc3n2CCCCC3)c1,-12,1.27
Cc1ccc(C(=O)Nc2cc(-c3noc(C)n3)sc2C)cc1,0,-0.06
O=C(NCc1sncc1Br)NCC1CCOCC1,-9,1.35
COc1ccc(C(=O)N2CCC(n3c(C)cnc3-c3ccncc3)CC2)cn1,-17,2.26
CC1=CCN(CCNS(=O)(=O)c2cnc3n2CCCC3)CC1,-4,0.69
CCc1ccccc1[C@@H]1C[C@H]1C(=O)N1CCCC1CN1CCCC1 (some centres undefined),-6,0.67
COC(=O)c1cc(OCC(=O)Nc2ccc(OC)cc2)c2cc(C)ccc2n1,-9,1.45
CNc1ncccc1C(=O)N(Cc1ccncc1)C[C@@H]1CCC(=O)N1,-3,0.59
COc1cccc2ncnc(N3CCO[C@H](c4nnc(C(C)C)o4)C3)c12,-19,3.72
O=S(=O)(C[C@H]1CCCCO1)Nc1ccc(-c2nnc3n2CCCC3)cc1,4,-0.42
CC(C)c1ccc2c(c1)N=C(c1ccncc1)N=C(c1cccs1)N2,-10,1.18
Cn1nc(-c2ccccc2)c2[nH]c(-c3ccoc3)nc21,-8,1.18

SMILES,% Inhibition [%],Z score
COc1ccccc1N1CCN(C(=O)Cn2nc(N3CCOCC3)ccc2=O)CC1,-12,1.32
Cc1cccc(S(=O)(=O)Nc2cnc(C3CC3)nc2)c1Cl,11,-1.4
COc1ccccc1OCC(=O)Nc1ccccc1Cc1nc(C)no1,4,-0.68
O=C(c1nc2ccccc2[nH]c1=O)N1C[C@H]2CC[C@@H](C1)N(CC1CC1)C2,-8,0.82
Cc1cc(NC(=O)C(=O)N2CCCC[C@@H]2CCO)no1,-11,1.36
C[C@@H](C(=O)NCc1noc(CCc2ccccc2)n1)c1ccccc1,10,-1.21
CCC(CC)NC(=O)COc1ccccc1OC,-12,1.54
CC(C)CCOc1ccc(CCNC(=O)c2ncc[nH]2)cc1,-9,1
CCN(C[C@H]1CCOC1)C(=O)NCCn1ccnc1,2,-0.27
O=C(c1cc2ccccc2s1)N1CCC(n2c(=O)[nH]c3ccc(F)cc3c2=O)CC1,-15,1.93
CCCOc1ccc(C(=O)Nc2nc(-c3ccc(C)cc3)c(NC(=O)c3ccco3)s2)cc1,-5,0.62
Cc1cnc(CNC(=O)c2cnc(C3CC3)nc2C)cn1,3,-0.53
O=C1c2cc3ccccc3c(-c3ccccc3)c2C(=O)N1c1ccccc1,38,-4.87
COC(=O)C1CCCCCC1NC(=O)c1cc[nH]n1 (centres undefined),32,-3.57
CCc1ccccc1CNC(=O)Nc1cccc(C(=O)N(C)C)n1,-14,2.11
CCOc1ccc(C(=O)N2CCC3(CC2)NC(=O)c2cc(F)ccc2N3CC)cc1,-1,0.19
COc1ncccc1-c1nc(C)ncc1C(C)C,12,-1.63
O=C(CCCc1ncc(-c2ccccc2)o1)N1CCNCCC12CCOCC2,-16,2.69
CCc1nc2cc(C(=O)N[C@H]3CCOC(C)(C)C3)cc(NC(=O)c3ccccc3OC)c2n1C,-1,0.21
COC(=O)C1CCCCN1CCOC1CCCCO1 (centres undefined),-11,1.9
CCN1CCC2CCC(C1)N2C(=O)C(C)=Cc1ccc(OC)c(F)c1 (centres undefined),4,-0.51
O=C(Cc1nnc(-c2ccc(Br)cc2)o1)NCc1ccccc1,-2,0.29

SMILES,% Inhibition [%],Z score
Cc1c(C(=O)NCCc2ccc(Cl)cc2)sc2ncnc(N(C)C3CCCCC3)c12,-8,0.73
N#Cc1ccc(C(NC(CC2CCOC2)c2ccccc2)C(N)=O)cc1 (centres undefined),2,-0.35
Cc1ccn2c(NCc3ccc(C#N)s3)nnc2c1,-1,0.06
COc1ccc(CN(C)Cc2nccs2)c(Cl)c1OC,-2,0.37
COCCN1CC(=O)N[C@H]2CN(C(C)C)C[C@@H]2OCc2cccc(c2)Oc2cc(ccc2OC)CCC1=O,-10,1.24
CN(CC[C@H]1CCCCO1)C(=O)Nc1cccc(N2C(=O)CN(C)C2=O)c1,6,-0.88
Fc1cccnc1NCc1nnc2n1CCCCC2,-15,2
N#Cc1ccc(CN(Cc2cccc(F)c2)c2ccc3nnnn3n2)cc1,-3,0.37
Cc1ccn(CC(=O)N2CCCN(CC(C)C)[C@H](c3nc(C)no3)C2)n1,3,-0.47
CCN(CC)Cc1cnc2c(C(=O)N(C)Cc3ccccn3)cnn2c1,-11,1.35
C[C@H](Oc1cccc2ccccc12)C(=O)NCc1csc(=O)[nH]1,-10,1
CC(C(=O)Nc1ncccn1)N1CCCC1Cn1cccn1 (centres undefined),38,-5.85
C[C@H]1C(=O)Nc2ccccc2CN1Cc1nnnn1C(C)(C)C,6,-0.91
N#Cc1ccc(N2CCC=C(F)C2)nc1,-3,0.51
CCc1ncnc(N(C)Cc2ncc(Br)cn2)c1F,-4,0.68
O=C(NC(c1ccccc1)[C@H]1C[C@@H](O)C1)c1cc(CO)ccn1 (some centres undefined),0,0.04
CC(=O)N1CCC(CNC(=O)c2cc[nH]c2C2CC2)CC1,-6,0.75
O=S(=O)(NCCc1n[nH]c(Cc2ccc(F)cc2)n1)c1ccccc1,-3,0.64
O=C(NCC1(O)CCCC1)C1CC2CCC1O2 (centres undefined),-2,0.25
COc1cccc(CNC[C@H]2COCc3nc4ccc(C)cc4n32)n1,0,0.01
Cc1c(CNC(=O)C(C)(C)[C@H](O)c2cccc(O)c2)cnn1C,-14,1.66
